In all, about 18,000 sequences were measured (“TetR repression strength (sort-seq, GFP reporter)”: median about 0.23, highest 2% from about 0.68 on). Some of the results follow.
molecular target: TetR (class B, Tn10) (UniProt P04483); test: TetR repression strength (sort-seq, GFP reporter) (relative to tetO2 = 1); higher = stronger repression; conditions: E. coli
Method in brief: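 E. coli SIG10-MAX carried a low-copy plasmid library with eight randomized operator positions between a constitutive promoter and sfGFP, with TetR constitutively expressed. Cells grew 5 h at 37 °C in LB with 50 µg/mL chloramphenicol, then 10^6 cells were FACS-sorted into 13 fluorescence bins, each Illumina-sequenced. Repression strength is the top bin index plus one minus the read-weighted mean bin, divided by the wild-type operator value. Three independent transformations; variants with ≥30 reads in all replicates and CV ≤0.5 were averaged.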

Chain of UniProt P04483 (P04483 whole entry): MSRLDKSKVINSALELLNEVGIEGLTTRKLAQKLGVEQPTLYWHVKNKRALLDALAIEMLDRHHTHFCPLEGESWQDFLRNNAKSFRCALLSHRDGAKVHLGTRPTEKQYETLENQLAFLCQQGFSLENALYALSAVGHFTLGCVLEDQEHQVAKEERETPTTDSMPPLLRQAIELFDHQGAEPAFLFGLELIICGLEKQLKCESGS

Sequence	TetR repression strength
TCCCTTCCAGTAAAGGAGA	0.0273
TCCCTTCGAGTACGGGAGA	0.258
TCCCCGGTAGTCGGTGAGA	0.24
TCCCATGTAGTGCTAGAGA	0
TCCCTCCTAGTAAGTGAGA	0.283
TCCCGTGTAGTCTGAGAGA	0.254
TCCCGCGGAGTCCAGGAGA	0.177
TCCCGCAAAGTAGTAGAGA	0.22
TCCCCGATAGTCCGTGAGA	0.207
TCCCTCTCAGTCTCTGAGA	0.237
TCCCTCGAAGTTGAGGAGA	0.116
TCCCTGAAAGTCGGTGAGA	0.166
TCCCCGCGAGTAAGGGAGA	0.239
TCCCTACAAGTGGCGGAGA	0.136
TCCCTTGAAGTCGAGGAGA	0.183
TCCCATGCAGTTGTAGAGA	0.495
TCCCGCGCAGTATAGGAGA	0.0706
TCCCGCCCAGTGTCTGAGA	0.505
TCCCACAGAGTGACTGAGA	0.275
TCCCGTGGAGTTGAGGAGA	0.221
TCCCACGTAGTTACCGAGA	0.155
TCCCGAATAGTTCGGGAGA	0.329
TCCCTGTGAGTGGTAGAGA	0.0877
TCCCGCCAAGTGTGAGAGA	0.0711
TCCCCGCGAGTTCCGGAGA	0.305
TCCCAGGGAGTAGATGAGA	0.28

Sequence	TetR repression strength
TCCCGAATAGTATGGGAGA	0.351
TCCCGTTTAGTGTTAGAGA	0.222
TCCCGATAAGTGTGAGAGA	0
TCCCTCATAGTAATAGAGA	0.29
TCCCAAGGAGTCTATGAGA	0.227
TCCCCCCTAGTGCGCGAGA	0.26
TCCCGAGGAGTTAACGAGA	0.535
TCCCCGTTAGTCCCGGAGA	0.0528
TCCCAGCGAGTGAAGGAGA	0.614
TCCCCTACAGTAGCTGAGA	0.332
TCCCGACTAGTTATCGAGA	0.197
TCCCATGTAGTCTCGGAGA	0.248
TCCCATCTAGTCCTCGAGA	0.428
TCCCGAAAAGTGTAAGAGA	0.3
TCCCGACGAGTAGCAGAGA	0.486
TCCCCGCGAGTGAGAGAGA	0.205
TCCCTGCCAGTGGGGGAGA	0.174
TCCCGGCCAGTTGAAGAGA	0.144
TCCCGCCCAGTCAGGGAGA	0.292
TCCCGACCAGTTCGGGAGA	0.272
TCCCCACGAGTGGATGAGA	0.382
TCCCGCTAAGTGGTAGAGA	0.372
TCCCATTAAGTTGCGGAGA	0
TCCCACCCAGTGGACGAGA	0.339
TCCCAGGGAGTCTTGGAGA	0.263
TCCCCCGGAGTGCCAGAGA	0.22

Sequence	TetR repression strength
TCCCCTATAGTAAGGGAGA	0.382
TCCCTGCGAGTCCTGGAGA	0.207
TCCCAAACAGTCGAAGAGA	0.296
TCCCTTCTAGTCGTAGAGA	0.309
TCCCAGCGAGTTTGGGAGA	0.162
TCCCTACTAGTTGCGGAGA	0.299
TCCCGATCAGTATTTGAGA	0.259
TCCCGTAGAGTTAGGGAGA	0.235
TCCCGGCTAGTTTCCGAGA	0.265
TCCCGATTAGTTGCCGAGA	0.231
TCCCGGATAGTCGGGGAGA	0.135
TCCCGCTTAGTGCGGGAGA	0.265
TCCCATATAGTCTGCGAGA	0.213
TCCCTCTTAGTGGTTGAGA	0.152
TCCCCTGCAGTTGGGGAGA	0.185
TCCCAGTTAGTGGCGGAGA	0.0987
TCCCATCGAGTGCGTGAGA	0.277
TCCCTCCGAGTTGTCGAGA	0.237
TCCCGTGCAGTAAGAGAGA	0.345
TCCCGGCCAGTAAATGAGA	0.318
TCCCTATAAGTCCTCGAGA	0.529
TCCCGCGGAGTCGAGGAGA	0.258
TCCCTCTGAGTACTGGAGA	0.223
TCCCCCTGAGTCTTTGAGA	0.312
TCCCATTCAGTTTTAGAGA	0.319
TCCCCCCTAGTACGCGAGA	0.143

Sequence	TetR repression strength
TCCCCCCGAGTGACAGAGA	0.626
TCCCCAGGAGTACTTGAGA	0.223
TCCCGAGGAGTTATGGAGA	0.189
TCCCTATAAGTCAAAGAGA	0.663
TCCCCTAAAGTGTCGGAGA	0.111
TCCCTAGTAGTGCCGGAGA	0.385
TCCCCGGCAGTGCCTGAGA	0.182
TCCCTCCCAGTTACCGAGA	0.363
TCCCATCAAGTTCAAGAGA	0.468
TCCCTAGGAGTGAGGGAGA	0.104
TCCCCTACAGTTCTAGAGA	0.522
TCCCTTCTAGTTGTAGAGA	0.441
TCCCCATCAGTTAGTGAGA	0.304
TCCCGGAAAGTCTCAGAGA	0.0397
TCCCGCGAAGTCATGGAGA	0.104
TCCCATGCAGTTGAGGAGA	0.201
TCCCGTTCAGTGCGTGAGA	0.145
TCCCTTTGAGTTTGGGAGA	0.168
TCCCGCAGAGTTGTTGAGA	0.217
TCCCACCCAGTCCCTGAGA	0.534
TCCCCGAGAGTATGCGAGA	0.165
TCCCTTGTAGTCGGGGAGA	0.938
TCCCGACGAGTTCAGGAGA	0.128
TCCCTCGAAGTTTAAGAGA	0.2
TCCCGCGGAGTGAGAGAGA	0.575
TCCCACTGAGTCGGGGAGA	0.384

Sequence	TetR repression strength
TCCCCAACAGTAGGTGAGA	0.113
TCCCAAAGAGTGATTGAGA	0.404
TCCCTCGGAGTGGATGAGA	0.213
TCCCGGGCAGTTACGGAGA	0.2
TCCCTGAGAGTTTGAGAGA	0.208
TCCCTGGCAGTGTACGAGA	0.246
TCCCCGCGAGTGCAAGAGA	0.369
TCCCGCATAGTCGGGGAGA	0.112
TCCCGGCTAGTTGCGGAGA	0.155
TCCCTATCAGTCAATGAGA	0.625
TCCCCAAGAGTAGATGAGA	0.739
TCCCAAATAGTGATGGAGA	0.0707
TCCCAGCTAGTATAGGAGA	0.353
TCCCGTATAGTCGGAGAGA	0.138
TCCCGAGCAGTCTTCGAGA	0.172
TCCCGGCTAGTCGGCGAGA	0.187
TCCCTAGGAGTTGTGGAGA	0.254
TCCCTCTCAGTCAGAGAGA	0.423
TCCCACTGAGTATCAGAGA	0.0567
TCCCACTGAGTTAAAGAGA	0.449
TCCCAACCAGTGCGCGAGA	0.16
TCCCGGAGAGTACGCGAGA	0.1
TCCCCCATAGTTTACGAGA	0.364
TCCCGACCAGTCCTGGAGA	0.281
TCCCAATGAGTGTAAGAGA	0.314
TCCCGGTTAGTTACCGAGA	0.101

Source: a collection of fitness landscapes (doi:10.1038/s41467-024-54723-y)
